# Measurements taken from the supplement of paper PMC3334620.
# In all, about 33,000 sequences were measured (“E-score (-0.5 to 0.5)”: median about -0.053, highest 2% from about 0.37 on). Some of the results follow.
# Biological target: Hap1 (UniProt P0CE41)
# Assay: PBM E-score (8-mer binding enrichment) (E-score (-0.5 to 0.5)); higher = stronger / more preferred TF binding; most listed sequences are background and not binding sites
# Settings: protein concentration: 200 nM; construct: GST-DNA-binding domain
# Description: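 Universal 'all 10-mer' protein binding microarrays (Agilent AMADID 015681) probed with GST-tagged S. cerevisiae TFs (full-length or DBD) made by in vitro transcription/translation (PURExpress), about 100-200 nM. Bound TF was detected with fluorescent anti-GST. Each ungapped 8-mer (which stands for itself and its reverse complement) is scored by the PBM enrichment score (E-score), a modified Wilcoxon-Mann-Whitney statistic from -0.5 to +0.5, computed with the Universal PBM Analysis Suite. Scale: above 0.35 generally sequence-specific binding.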
# Chain of UniProt P0CE41 (P0CE41 whole entry): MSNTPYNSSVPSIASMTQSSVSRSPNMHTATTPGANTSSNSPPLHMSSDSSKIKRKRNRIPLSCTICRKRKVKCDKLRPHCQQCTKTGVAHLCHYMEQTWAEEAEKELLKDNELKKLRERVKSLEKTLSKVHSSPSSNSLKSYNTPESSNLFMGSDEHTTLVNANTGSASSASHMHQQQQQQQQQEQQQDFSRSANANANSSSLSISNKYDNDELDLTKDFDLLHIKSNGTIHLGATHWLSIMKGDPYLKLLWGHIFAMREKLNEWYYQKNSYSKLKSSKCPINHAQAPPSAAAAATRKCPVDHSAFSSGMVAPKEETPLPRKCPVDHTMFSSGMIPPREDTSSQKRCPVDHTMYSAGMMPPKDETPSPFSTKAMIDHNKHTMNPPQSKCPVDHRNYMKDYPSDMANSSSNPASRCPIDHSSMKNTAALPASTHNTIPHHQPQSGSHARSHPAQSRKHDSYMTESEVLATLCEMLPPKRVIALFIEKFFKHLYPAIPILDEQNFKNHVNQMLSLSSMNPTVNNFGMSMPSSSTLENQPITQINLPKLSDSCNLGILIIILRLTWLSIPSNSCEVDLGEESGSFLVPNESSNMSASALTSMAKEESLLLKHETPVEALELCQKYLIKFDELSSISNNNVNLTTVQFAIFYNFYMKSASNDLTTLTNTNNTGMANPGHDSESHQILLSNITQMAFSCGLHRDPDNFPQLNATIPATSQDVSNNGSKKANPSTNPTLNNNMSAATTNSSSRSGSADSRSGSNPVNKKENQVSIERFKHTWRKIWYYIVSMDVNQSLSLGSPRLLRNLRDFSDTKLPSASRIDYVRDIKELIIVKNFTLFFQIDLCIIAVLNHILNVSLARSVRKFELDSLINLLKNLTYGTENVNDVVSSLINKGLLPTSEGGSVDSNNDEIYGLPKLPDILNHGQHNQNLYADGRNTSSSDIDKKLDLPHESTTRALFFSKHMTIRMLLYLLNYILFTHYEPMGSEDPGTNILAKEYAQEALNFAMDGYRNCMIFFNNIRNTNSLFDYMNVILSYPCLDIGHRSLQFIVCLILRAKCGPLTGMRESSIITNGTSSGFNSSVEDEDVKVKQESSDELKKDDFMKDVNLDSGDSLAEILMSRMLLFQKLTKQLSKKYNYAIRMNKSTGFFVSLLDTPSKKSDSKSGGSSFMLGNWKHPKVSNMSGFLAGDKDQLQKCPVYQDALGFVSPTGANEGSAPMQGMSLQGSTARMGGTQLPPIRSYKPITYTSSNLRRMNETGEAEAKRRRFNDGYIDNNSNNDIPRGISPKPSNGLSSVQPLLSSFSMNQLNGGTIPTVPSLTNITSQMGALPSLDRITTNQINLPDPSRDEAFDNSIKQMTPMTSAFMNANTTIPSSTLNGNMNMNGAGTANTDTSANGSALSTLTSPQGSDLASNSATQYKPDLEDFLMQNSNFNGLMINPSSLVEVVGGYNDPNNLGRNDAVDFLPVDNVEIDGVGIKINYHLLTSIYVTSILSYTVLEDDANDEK
row,Sequence,PBM E-score
1,GATACGGC,0.00586
2,GAGTAATA,0.0813
3,ACATTACT,-0.176
4,CCATTAAC,-0.0448
5,AGACTCTC,-0.148
6,TCGTGGAA,-0.0409
7,AAGAAGCC,0.198
8,CGAGATTA,0.16
9,CTTCACAC,-0.217
10,AGGTTCAA,-0.0501
11,ATAGTAGG,-0.0329
12,GGGCGGAC,0.279
13,TACCTAAA,-0.182
14,CTGTGCGC,0.00713
15,GTTGAAAC,0.007
16,TGGCACAA,-0.214
17,ATAACTGA,-0.0311
18,CATCTGCG,0.0667
19,AGTTGAAA,-0.0683
20,CGTTTTGA,-0.114
21,ATATGTGA,-0.237
22,CCCTCTCC,-0.286
23,CCGACAAG,0.282
24,CCAGTGGA,-0.164
25,AGATGCGA,0.0962

row,Sequence,PBM E-score
1,CTCCGGGA,0.392
2,CCAAGAGA,-0.24
3,AAGCGAGA,0.173
4,ACCTCGGA,0.384
5,GCGGCACA,0.0226
6,GACCCGGC,0.209
7,CACGTTGA,-0.208
8,GGTTCGGA,0.373
9,AGCAAACG,0.0461
10,ATGAGCGA,0.0994
11,GTTTAGCA,0.0534
12,ATTTAACC,0.225
13,TCTACAGA,-0.163
14,ATGGGATG,-0.0363
15,ACCTAAGG,-0.194
16,ATTTTCGC,0.0139
17,CTGGCACA,-0.236
18,CAAATGAC,-0.121
19,GCGTAGTA,-0.0115
20,AATAGCAC,-0.0797
21,GCCAGGCC,0.0326
22,AACTCAAC,0.013
23,GTCATCAA,-0.222
24,GGGCTTTA,0.132
25,CACTTGTC,-0.00073

row,Sequence,PBM E-score
1,ACGCTGAA,-0.0377
2,GTCCAACA,-0.0782
3,CTTATGGC,-0.11
4,AAGACCGT,0.0453
5,CTAGCCGA,0.25
6,GCGCCTCC,-0.0192
7,TAACTCCA,0.204
8,AGTCCCGA,0.225
9,CTCGCTGC,-0.0701
10,AGTTAGGC,-0.113
11,AACGTCAT,-0.0725
12,AGCATCAA,-0.191
13,ACGTCCGG,0.411
14,GGCAATAC,0.239
15,CGAGACCG,0.279
16,GCCTTCGA,-0.243
17,ACCATGGC,-0.0677
18,CTTATCCA,-0.0982
19,CCATCCCG,0.0745
20,AAAAGATA,-0.00353
21,AACTCCTG,-0.0455
22,AACCGATA,0.421
23,TATCTCAA,-0.0851
24,GATTTGCA,0.00669
25,ATCAACAC,-0.154

row,Sequence,PBM E-score
1,CTTCATAC,-0.0879
2,ACATCTAG,-0.249
3,TCTAGACA,-0.23
4,CCGTGCGA,0.214
5,CTGAAAGA,-0.185
6,AGTGGAAA,-0.0732
7,AAGCAGAC,-0.107
8,ACGTAAGA,-0.281
9,TAATTCAA,-0.0714
10,GACTCGAA,-0.0617
11,GCGAGTCC,0.122
12,CTGTCGCC,-0.0019
13,ATCGGGCC,0.324
14,GAGCTCTA,-0.0284
15,CGCCTGGA,-0.138
16,AATCAACA,-0.0833
17,CTTGAGCC,0.00759
18,ATAGGCAT,-0.0698
19,CTGTCAAA,-0.317
20,GTCACACA,-0.119
21,ACTACTAT,-0.0167
22,GATGGCGC,-0.0122
23,CGTGGATC,-0.0375
24,CAAATTGG,-0.0778
25,AAATGGGA,-0.155

row,Sequence,PBM E-score
1,GCGAAAAA,0.105
2,AGACGGCC,0.073
3,TCGATAAA,0.146
4,CACTTTGG,-0.0975
5,AGACCTAC,-0.0878
6,CATCTAAG,-0.0624
7,AGGGGTTA,-0.0702
8,GCCTTCAC,-0.15
9,GGCTTGAA,-0.0379
10,CCAACCCG,0.138
11,CCTAGCTC,-0.0128
12,TAATCGAA,-0.085
13,GGTTTTAA,0.334
14,AGACCCTG,-0.282
15,AACATGCA,-0.198
16,CCACTGCA,-0.0925
17,CAAGATGG,-0.211
18,GTGCTTTA,-0.0684
19,CACACATG,-0.0761
20,GAGAGCGA,0.0311
21,AATTCGTA,-0.112
22,CCTTTGCC,-0.136
23,GGTGTGAA,-0.00686
24,CGTTGCAG,-0.238
25,ACATTAGA,-0.197

row,Sequence,PBM E-score
1,CCTAATAG,-0.159
2,ACACCGTG,0.0547
3,AATGGCGA,0.186
4,CCGGTTGC,0.294
5,ATATAGAG,-0.134
6,ACCTCCTA,-0.192
7,CAGAATCG,0.0556
8,CGACATAC,-0.0516
9,AGTTGGAT,-0.047
10,GCAGGATA,-0.141
11,AGTTACAC,-0.0432
12,GACGGCAC,-0.122
13,GTAAAGTA,-0.159
14,CAAGTGTC,-0.197
15,AACCAGAG,-0.12
16,CCAATGTA,-0.0843
17,GCACGACC,0.0214
18,ATTCCCTC,-0.083
19,AAGCGGGT,0.151
20,CCTTAAGA,-0.164
21,GAACAGAA,-0.00224
22,CGCAGGTA,0.149
23,AGCCGGAC,0.409
24,GGGGAGAA,0.0192
25,CGCCCCCC,-0.128

row,Sequence,PBM E-score
1,CGTTACTC,-0.043
2,CCGGTTAA,0.344
3,TATCATGA,-0.305
4,GACCCGAC,0.313
5,ACCTTATA,-0.0869
6,CCAAACGG,0.157
7,ACCTAGAA,-0.145
8,ATTTATAC,0.152
9,AATTGGCC,-0.0467
10,GCCTTCCA,-0.186
11,CTCGGCCA,0.334
12,ACGAGTAA,-0.00105
13,GCTCAGTA,-0.239
14,CTTATAAC,0.0543
15,ATACAGCG,-0.074
16,AAAGTTTG,-0.0236
17,CTACCCAC,-0.148
18,ACCTACTG,-0.144
19,CTGCGAGA,-0.215
20,GATCACCC,-0.0244
21,CGTGCACC,-0.0161
22,ACTGCTGG,-0.227
23,ACAATTCA,-0.229
24,TCCTGTAA,-0.232
25,ATGTATTC,0.196

row,Sequence,PBM E-score
1,ACACCTGC,-0.0479
2,CCCGGGCG,0.383
3,ACGTACTG,-0.144
4,CACGTAGG,-0.208
5,CGGAATTC,0.319
6,ACCGTGCC,-0.0781
7,CTTATTAC,-0.0999
8,ACGTATCG,0.0671
9,AGCGAGAA,-0.0045
10,TCAACAGA,-0.103
11,CGCAGTGC,-0.237
12,ACGTGCTC,-0.0949
13,CAGAAGCA,-0.181
14,ACGGCTCA,-0.0607
15,ATACTAAC,0.0458
16,CCGGTAAG,0.391
17,GCGCTCTA,-0.0257
18,TAACGCGA,0.0868
19,GATCGCGA,0.104
20,CTGTACAA,-0.0907
21,TACGGAGA,0.326
22,TGACGAAA,-0.12
23,TATCTAAA,0.0273
24,AGATTGTA,-0.243
25,AAAAAGCC,0.156

row,Sequence,PBM E-score
1,GGTTTCGA,0.0894
2,ATGGGGAG,-0.191
3,CAGGGCAC,-0.0797
4,GCAGTACC,0.114
5,ATCTGTAG,-0.107
6,GCCACAGC,-0.111
7,TACACGGA,0.224
8,AACTCAAA,-0.17
9,AAGCGACG,0.0809
10,CGTAAGCC,0.059
11,GTAGGTGA,-0.236
12,TCAGATGA,-0.204
13,AGTAATAG,-0.264
14,CGATGGCC,-0.0822
15,CTCGACTA,-0.18
16,AGGGGCCA,-0.179
17,CACATCGC,0.0343
18,AAAACGTC,-0.0353
19,AAAGCCAC,0.0488
